Hit rate of the full screen: of about 410,000 compounds, about 490 (0.12%) were called active. The inconclusive results got no clear call from the source; some entries with a clear call stand among them for comparison. Calls follow the shape of the dose curve; as a rule, active = well fitted inhibition curve with a large enough effect; inconclusive = small, poorly fitted or top-dose-only effect; inactive = flat fitted curve, though single readings scatter. Where the call is inconclusive, the potency comes from a doubtful curve fit.
Target: pyruvate kinase (Trypanosoma brucei) (UniProt Q57TT1)
Experiment: qHTS of Trypanosoma Brucei Inhibitors; also: nearly all actives have a fitted effect of over 50% in size
Settings: TbPYK enzyme, Kinase-Glo Plus ATP luminescence, 45 min; series mostly up to 76.8 µM; activity, negative = inhibition: at the top concentration
Source text: Members of the Trypanosomatidae family of parasitic protozoans cause a spectrum of diseases throughout the tropical and subtropical world. Sleeping sickness, caused by two subspecies of Trypanosoma brucei, is endemic to areas of sub-Saharan Africa, while Chagas' disease, a manifestation of Trypanosoma cruzi infection, is prevalent throughout Central and South America. In addition, many species of Leishmania are responsible for a range of cutaneous and visceral diseases, causing ulcers, destructive lesions and kalaazar, a lethal infection of the viscera. These diseases cause severe public health and economic burdens on populations that are often already caught in a tragic cycle of poverty, poor nutrition and disease. Collectively, parasites of the trypanosomatid family infect 30 million people worldwide (~500 million live in endemic areas), and account for ~130K deaths annually. Existing treatments have developed little in the past 50 years, and suffer from toxicity, poor efficacy and resistance; the goal of this project is to develop lead drugs that will be suitable for entry into pre-clinical trials.
Glycolysis in axenically cultured T. cruzi, representing the intracellular pathogenic stage, is also essential for these parasites. {Engel, 1987} This project aims to discover and optimize selective inhibitors of the glycolytic enzyme pyruvate kinase (PYK) from Trypanosoma brucei, the parasite that causes sleeping sickness. […] Trypanosomatid PYKs show significant differences from their human counterparts including only 47-50% sequence identity and different allosteric and activation properties.{Callens, 1992} To this end, a qHTS was done against the MLSMR to discover inhibitors.
NIH Molecular Libraries Probe Production Network [MLPCN]
NIH Chemical Genomics Center [NCGC]
PI Name: Malcolm Walkinshaw, University of Edinburgh
2 uL of TbPYK/substrate buffer (columns 1-3, 5-48) are dispensed into Greiner white solid bottom 1536-well assay plates; column 4 receives only TEA buffer as 0x TbPYK controls. Compounds are then transferred via Kalypsys pin tool equipped with 1536-pin array (10 nL slotted pins, V&P Scientific, San Diego, CA). Following addition of compound, 2 uL of ADP (130 uM final concentration, all columns) is added to initiate the reaction. The plates are then incubated at room temperature for 45 minutes. Kinase-Glo Plus reagent is added (3 uL) and plates incubated for 10 minutes, before being transferred to a ViewLux high-throughput CCD imager (PerkinElmer) wherein single end-point measurements of luminescence are acquired using a clear filter. All reagents are diluted in an assay buffer consisting of 50 mM TEA (pH 7.2), 100 mM KCl, 10 mM MgCl2, 0.05% BSA and 0.01% Tween-20.
All screening operations will be performed on a fully integrated robotic system (Kalypsys, San Diego, CA) containing one RX-130 and two RX-90 anthropomorphic robotic arms (Staeubli, Duncan, SC). Library plates will be screened starting from the lowest and proceeding to the highest concentration. Vehicle-only plates, with DMSO being pin-transferred to columns 5-48, will be inserted uniformly at the beginning and the end of each library in order to monitor and record any shifts in the background, which can be affected by reagent dispensers or loss in enzyme activity over time. Screening data will be corrected, normalized, and concentration-effect relationships will be derived by using publicly-available curve fitting algorithms developed in-house (http://ncgc.nih.gov/pub/openhts).
Potency is read from the fitted curve at half-maximal effect; tags tell the direction and shape of the fitted curve.

SMILES | Potency | activity, negative = inhibition
COc1ccc(S(=O)(=O)Nc2ccc(Oc3ncccn3)c(Cl)c2)cc1 | inconclusive: 50.1 µM [inhibitor, single point] | –
O=C(N/N=C/c1cccc(O)c1)C(=O)N1CCCCCC1 | – | inactive: 0%
COc1cccc2nc3cc(C)c(C)cc3nc12 | inconclusive: 17.8 µM [inhibitor, partial curve, poor fit] | –
CCOC(=O)C1=C(C)c2ccccc2N(C(=O)OC)C1(C)C(=O)OCC (stereo not drawn) | inconclusive: 17.8 µM [inhibitor, partial curve, poor fit] | –
COCCN(Cc1cc2cccc(C)c2n2nnnc12)C(=O)C(F)(F)F | inconclusive: 8.91 µM [inhibitor, full curve] | –
CCOC(=O)N1CCN(S(=O)(=O)c2ccc(C(=O)NNc3nc4c(C)cccc4s3)cc2)CC1 | inconclusive: 35.5 µM [inhibitor, partial curve] | –
Cn1ccnc1Sc1cc(NCCCO)c([N+](=O)[O-])c2nonc12 | inconclusive: 6.31 µM [inhibitor, partial curve, poor fit] | –
Cc1cc(=O)n2[nH]nnc2n1 | inconclusive: 31.6 µM [inhibitor, single point] | –
Cc1occc1C(=O)Nc1cc(C(C)(C)C)on1 | inconclusive: 28.2 µM [inhibitor, partial curve, poor fit] | –
COc1ccc(CCN2C(=O)c3[nH]nc(-c4ccccc4O)c3C2c2cccc(OC)c2)cc1 (stereo not drawn) | – | inactive: 3.93%
O=C(NCc1n[nH]c(=S)n1-c1cccc(Cl)c1)c1ccc(S(=O)(=O)N2CCCC2)cc1 | inconclusive: 8.91 µM [inhibitor, partial curve] | –
COc1cc(NC(=O)C2COc3ccccc3O2)c(OC)cc1Cl (stereo not drawn) | – | inactive: -6.52%
O=C(CCCn1c(=S)[nH]c2ccsc2c1=O)Nc1ccc2c(c1)OCO2 | inconclusive: 11.2 µM [inhibitor, partial curve] | –
CCn1c(-c2csc(-c3ccccc3)n2)n[nH]c1=S | inconclusive: 4.47 µM [inhibitor, full curve] | –
Cn1c(SCc2n[nH]c(=S)n2-c2ccccc2)nnc1-c1ccccc1 | inconclusive: 25.1 µM [inhibitor, partial curve] | –
CC(=O)N1c2c(cc(Br)cc2S(=O)(=O)N2CCN(C(=O)c3ccco3)CC2)CC1C (stereo not drawn) | inconclusive: 31.6 µM [inhibitor, single point] | –
Oc1c(N=Nc2ccc(F)cc2)ccc2ccccc12 | inconclusive: 44.7 µM [inhibitor, single point] | –
O=C1N=c2ccccc2=C1c1sc(NS(=O)(=O)c2ccccc2)nc1O | – | inactive: -26.5%
Cc1nc2c(=O)[nH]c(=S)[nH]c2[nH]c1=O | inconclusive: 35.5 µM [inhibitor, partial curve, poor fit] | –
O=S(=O)(CCC1CCCCN1)c1ccccc1 (stereo not drawn) | – | inactive: -2.84%
CCOC(=O)c1ccc(N2CCN(c3ccccc3F)CC2)c(NC(=O)Nc2ccc(Cl)c(Cl)c2)c1 | – | inactive: 1.36%
COc1ccccc1OCCn1c(=S)[nH]c2ccccc21 | inconclusive: 11.2 µM [inhibitor, partial curve, poor fit] | –
COc1ccc(C(NC(=O)/C=C\c2ccco2)c2ccc(OC)c(OC)c2)cc1 (stereo not drawn) | inconclusive: 31.6 µM [inhibitor, single point] | –

SMILES | Potency | activity, negative = inhibition
C=CCn1c(C(CCCC)CC(O)COCC(C)C)n[nH]c1=S (stereo not drawn) | inconclusive: 14.1 µM [inhibitor, partial curve] | –
COc1cc(C)c(NC(c2ccccc2)c2ccccc2)cc1OC | – | inactive: -1.06%
C[C@H]1CCCCO[C@H](CN(C)Cc2ccccc2)[C@@H](C)CN([C@@H](C)CO)C(=O)c2cc(NC(=O)CCC(F)(F)F)ccc2O1 | – | inactive: 2.61%
COc1cc(/C=C2\C(=O)NC(=O)N(c3ccccc3)C2=O)c([N+](=O)[O-])cc1OC | inconclusive: 25.1 µM [inhibitor, partial curve, poor fit] | –
O=c1c2ccccc2cnn1Cc1n[nH]c(=S)n1-c1ccccc1F | inconclusive: 25.1 µM [inhibitor, partial curve, poor fit] | –
CSc1ccc(CCNC(=O)CCc2c(C)nc3c(c(C)nn3-c3ccc(C)c(C)c3)c2C)cc1 | – | inactive: -4.24%
Cc1[nH]n(-c2ccccc2)c(=O)c1N=Nc1ccccc1 | – | inactive: 1.05%
CCCCCC(O)CCc1n[nH]c(=S)n1-c1ccccc1 (stereo not drawn) | active: 4.47 µM | –
COc1cc(O)c(C(CCN2CCCC2)c2ccc3c(c2)OCO3)c(OC)c1 (stereo not drawn) | – | inactive: -5.12%
Cc1cccc(C(=O)O/N=C(\N)c2ccccn2)c1 | inconclusive: 35.5 µM [inhibitor, partial curve] | –
Cn1c(-c2sccc2OCc2ccc(Cl)cc2Cl)n[nH]c1=S | active: 3.55 µM | –
COC(=O)c1cc2c(ccn2-c2ccc(F)cc2)n1Cc1ccc(OC(C)=O)cc1 | – | inactive: -5.44%
CCCCNC(=O)c1ccc2nc(-c3ccco3)c(-c3ccco3)nc2c1 | inconclusive: 39.8 µM [inhibitor, single point] | –
O=C(CSCc1ccccc1)N1CCN(C(=O)c2ccco2)CC1 | – | inactive: 1.05%
Cc1cc2[nH]c(=O)c(=O)[nH]c2cc1S(=O)(=O)NCc1ccc(F)cc1 | – | inactive: 0.276%
N=c1oc2cc(O)ccc2cc1C(=O)Nc1ccc(Cl)cc1 | – | inactive: 3.64%
Cc1ccccc1OCC(O)Cn1c(SC(C)C)nc2c1c(=O)[nH]c(=O)n2C (stereo not drawn) | inconclusive: 31.6 µM [inhibitor, partial curve] | –
O=C(NCc1ccccc1F)C(=O)NCC1CCCN1S(=O)(=O)c1cccs1 (stereo not drawn) | inconclusive: 35.5 µM [inhibitor, single point] | –
COc1ccc(-n2c(Cn3nc(C(F)(F)F)cc3C)n[nH]c2=S)cc1 | active: 3.16 µM | –
CC(=O)Oc1ccccc1C(=O)Nc1ncc([N+](=O)[O-])s1 | inconclusive: 2.82 µM [inhibitor, partial curve, poor fit] | –
Cc1ccc(C(c2sc3nc(-c4ccco4)nn3c2O)N2CCOCC2)cc1 (stereo not drawn) | – | inactive: -7.9%
CCOc1ccc(C(C)=O)cc1COc1cccnc1[N+](=O)[O-] | – | inactive: -6.83%
CC1CCCN(S(=O)(=O)c2ccc(NC(=O)C3CC(=O)N(c4ccccc4)C3)cc2)C1 (stereo not drawn) | – | inactive: 1.44%

SMILES | Potency | activity, negative = inhibition
Cc1ccc(O)c(CNc2cnc3ccccc3c2)c1 | inconclusive: 50.1 µM [inhibitor, single point] | –
Cc1cc(-c2n[nH]c(=S)n2-c2ccccc2C)cs1 | inconclusive: 2.82 µM [inhibitor, full curve, poor fit] | –
COc1ccc(S(=O)(=O)CCC(=O)NCc2ccc(C)o2)cc1 | inconclusive: 25.1 µM [inhibitor, single point] | –
CC(=O)Oc1ccc(N2C(=O)C3C4C=CC(CO)(O4)C3C2=O)cc1 (stereo not drawn) | inconclusive: 39.8 µM [inhibitor, partial curve] | –
CC(=O)Nc1n[nH]c(=S)s1 | inconclusive: 2 µM [inhibitor, full curve, poor fit] | –
CCOC(=O)Nc1ccc(OC(=O)Oc2ccc(NC(=O)OCC)cc2)cc1 | – | inactive: 3.79%
CCC(C)C(N)C1=NC(C(=O)N[C@@H](CC(C)C)C(=O)N[C@H](CCC(=O)[O-])C(=O)N[C@H](C(=O)N[C@H]2CCCCNC(=O)[C@H](CC(N)=O)NC(=O)[C@@H](CC(=O)[O-])NC(=O)[C@H](Cc3cnc[nH]3)NC(=O)[C@@H](Cc3ccccc3)NC(=O)[C@H]([C@@H](C)CC)NC(=O)[C@@H](CCCN)NC2=O)[C@@H](C)CC)CS1.[Zn+2] (stereo partly drawn) | inconclusive: 35.5 µM [inhibitor, single point] | –
Cc1cccc(C)c1NC(=O)CNC(=O)CNC(=O)Cc1cccc2ccccc12 | – | inactive: 3.59%
CCCCOc1ccc(C(C)=O)cc1Cc1c(O)[nH]c(=S)[nH]c1=O | inconclusive: 11.2 µM [inhibitor, partial curve, poor fit] | –
O=C(CN1CCCCCC1)Nc1ccccc1C(=O)Nc1ccccc1 | inconclusive: 31.6 µM [inhibitor, single point] | –
O=C(CN(c1ccccc1)S(=O)(=O)c1ccccc1)N/N=C/c1ccco1 | – | inactive: 1.69%
CC1CN(Cc2c(O)ccc3c2oc(=O)c2ccccc23)CC(C)O1 (stereo not drawn) | inconclusive: 35.5 µM [inhibitor, single point] | –
CC1=C/C(=N\OS(=O)(=O)c2ccccc2)C=CC1=O | inconclusive: 35.5 µM [inhibitor, partial curve] | –
O=c1[nH]c2ccc(Cl)cc2c(-c2ccccc2)c1SC(=S)N1CCCCC1 | inconclusive: 10 µM [inhibitor, partial curve, poor fit] | –
O=c1c2sc3ccccc3c2[nH]c(=S)n1CCN1CCOCC1 | inconclusive: 5.62 µM [inhibitor, partial curve, poor fit] | –
CCN1C(=O)/C(=C\C=C2/C=CC=CN2CC)SC1=S | inconclusive: 28.2 µM [inhibitor, partial curve, poor fit] | –
S=c1[nH]nc(-c2ccco2)n1/N=C/C=C/c1ccco1 | inconclusive: 7.94 µM [inhibitor, partial curve] | –
CN(CC(=O)Nc1ccc(F)cc1)C(=O)c1ccc2ccccc2n1 | – | inactive: 0.325%
COC(=O)c1ccc(CSc2ccc3nnc(-c4cccc(F)c4)n3n2)o1 | inconclusive: 31.6 µM [inhibitor, partial curve, poor fit] | –
Cc1nc2ccccc2n1Cc1n[nH]c(=S)n1-c1ccc(Cl)cc1 | inconclusive: 2.82 µM [inhibitor, partial curve] | –
CCOC(=O)c1cc(C#N)c(=S)[nH]c1C | inconclusive: 12.6 µM [inhibitor, partial curve] | –
S=c1[nH]nc2nnc3ccccc3n12 | inconclusive: 35.5 µM [inhibitor, partial curve, poor fit] | –

— PubChem BioAssay AID624173 (National Center for Advancing Translational Sciences (NCATS), 2012)
